{
  "source": "patent US20210179678A1",
  "about": "(NAVIGO PROTEINS, published 2021)",
  "binders": {"B1": {"name": "Affilin-138801 (designed binder)", "chain": "MQIFVHTDTGKTITLEVEPSNTIENVKAKIQDKEGIPPDQQRLIWAGKQLEDGRTLSDYNIDPQLKLHLVLRLRAAGIGIQTFVTTQTGETITLEVEPSDTIENVKAKIQDKVGIPPDQQRLIWAGKQLEDGRTLSDYNIDYRYLHLVLRLRAA", "notes": "GIG linker between the two ubiquitin muteins; not shown: C-terminal Strep-tag II"}, "B2": {"name": "Affilin-138800 (designed binder)", "chain": "MQIFVHTDTGKTITLEVEPSDTIENVKAKIQDKEGIPQDQQRLIWAGKQLEDGRTLSDYNIDPQLKLHLVLRLRAAGGMQIFVTTQTGKTITLEVEPSDTIENVKAKIQDKEGIPPDQQRLIWAGKQLEDGRTLSDYNIDYRFLHLVLRLRAA", "notes": "Strep-tagged form used in ELISA, SPR and cell assays; GG linker between the two ubiquitin muteins; not shown: C-terminal Strep-tag II"}, "B3": {"name": "Affilin-181490 (designed binder)", "chain": "B2 chain with S57C"}, "B4": {"name": "Affilin-181491 (designed binder)", "chain": "B2 chain with Y141A", "notes": "not shown: C-terminal Strep-tag II"}, "B5": {"name": "Affilin-181492 (designed binder)", "chain": "B2 chain with R151G, A152L", "notes": "as for B4"}, "B6": {"name": "Affilin-181493 (designed binder)", "chain": "B2 chain with R151A, A152L", "notes": "as for B4"}, "B7": {"name": "Affilin-77404 (designed binder)", "chain": "MRIWVHTLTGKTITLEVEPSDTIENVKAKIQDKEGIPPDQQRLIWAGKQLEDGRTLSDYNINPKLSLHLVLRLRAAGIGMQIFVHTQTGKTITLEVEPSDTIENVKAKIQDKEGIPPDQQRLIWAGKQLEDGRTLSDYNIGWQAPLHLVLRLRAA", "notes": "as for B4"}},
  "note": "Changes are numbered by the printed parent chain.",
  "data": [
    {"molecular_target": "T1, fibronectin fragment 67B89 (human ED-B flanked by domains 6, 7 and 8, 9) (human, UniProt P02751-7 1080-1538, biotinylated with EZ-Link Sulfo-NHS-LC-Biotin (preferred N-terminal) for SPR; unlabelled when coated for ELISA)", "T1 construct": "range 1080-1538; The range 1080-1538 is printed once for both 67B89 and the off-target 6789; made in E. coli from pET28a; also called target 67689", "assay": "SPR (Biacore 3000), biotinylated 67B89 on streptavidin chip, Affilin injected 0-500 nM, 6789 channel subtracted, 1:1 Langmuir fit", "units": {"Kd": "nM", "koff": "s⁻¹", "kon": "M⁻¹ s⁻¹"}, "values": [
      {"binder": "B1", "Kd": 0.925, "koff": 0.00151, "kon": "1.63e+06"},
      {"binder": "B2", "Kd": 0.634, "koff": 0.000783, "kon": "1.24e+06"},
      {"binder": "B3", "Kd": 0.615, "koff": 0.000948, "kon": "1.54e+06"},
      {"binder": "B4", "Kd": 71.1, "koff": 0.0687, "kon": 969000},
      {"binder": "B5", "Kd": 4.37, "koff": 0.00665, "kon": "1.52e+06"},
      {"binder": "B6", "Kd": 3.59, "koff": 0.00691, "kon": "1.93e+06"}
    ]},
    {"molecular_target": "T1, fibronectin fragment 67B89 (human ED-B …)", "assay": "concentration dependent ELISA on plates coated with 67B89; Affilin applied in mouse serum for 24 h at 37 C; detection with anti-Ubi antibody and anti-IgG-POD, Abs 450-600 nm", "protocol": "(§1) The ELISA was carried out in 96-well medium binding plates (Microlon 200, Greiner Bio-One, Kremsmuenster, Austria). Coating with target 67689 and off-target 6789 (both 5 μg/ml in PBS) was performed by overnight incubation at 4° C. The wells were then washed with PBST and blocked with 3% BSA solution for 2 h at room temperature. Various concentrations of Affilin protein were applied on target coated plates in mouse serum for 1 and 24 h at 37° C. Between all incubation steps the wells were washed 3-fold with PBST. For detection of Affilin binding to 67689 anti-Ubi-antibody and anti-IgG-POD were used, followed by TMB Plus (Kem-En-Tec Diagnostics, Taastrup, Denmark) incubation. Measuring the absorbance at 450 nm was carried out with a Sunrise microplate reader (Tecan, Maennedorf, Switzerland).", "units": {"Kd": "nM"}, "values": [
      {"binder": "B1", "Kd": 1.4},
      {"binder": "B2", "Kd": 12.3},
      {"binder": "B7", "Kd": 2.2}
    ]},
    {"molecular_target": "T1, fibronectin fragment 67B89 (human ED-B …)", "assay": "concentration dependent ELISA on plates coated with 67B89; Affilin applied in mouse serum for 1 h at 37 C; detection with anti-Ubi antibody and anti-IgG-POD, Abs 450-600 nm", "protocol": "as §1", "units": {"Kd": "nM"}, "values": [
      {"binder": "B1", "Kd": 0.668},
      {"binder": "B2", "Kd": 10.6},
      {"binder": "B7", "Kd": 0.936}
    ]},
    {"molecular_target": "T1, fibronectin fragment 67B89 (human ED-B …)", "assay": "concentration dependent ELISA on plates coated with 67B89; Affilin applied in PBS for 1 h; detection with anti-Ubi antibody and anti-IgG-POD, Abs 450-600 nm", "protocol": "as §1", "units": {"Kd": "nM"}, "values": [
      {"binder": "B1", "Kd": 1.8},
      {"binder": "B2", "Kd": 6.7},
      {"binder": "B7", "Kd": 1.2}
    ]}
  ]
}
